Our source for the binding signal (log2 normalized intensity) values is publication PMC10726135.

This is one part of the list. At the low end of the ranking, values are background and their order means little. The protein was read in a cell extract, so binding may be indirect.

In the assay the target is T1, HNF4alpha8 (COS-7 nuclear extract) (UniProt P41235-5).
T1 sequence: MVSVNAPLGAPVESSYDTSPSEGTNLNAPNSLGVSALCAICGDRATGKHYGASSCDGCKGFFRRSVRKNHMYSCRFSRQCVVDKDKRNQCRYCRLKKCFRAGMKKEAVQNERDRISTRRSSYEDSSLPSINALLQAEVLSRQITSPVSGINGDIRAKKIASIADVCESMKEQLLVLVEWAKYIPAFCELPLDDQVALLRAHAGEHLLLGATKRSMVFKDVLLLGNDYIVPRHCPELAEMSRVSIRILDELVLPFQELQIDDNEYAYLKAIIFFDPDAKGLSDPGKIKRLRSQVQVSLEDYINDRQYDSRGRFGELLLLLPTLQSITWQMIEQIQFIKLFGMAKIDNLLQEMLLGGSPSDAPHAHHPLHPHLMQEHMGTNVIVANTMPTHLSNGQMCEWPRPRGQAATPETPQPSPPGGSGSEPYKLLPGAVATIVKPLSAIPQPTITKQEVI
Kind of assay: protein-binding microarray. The following applies: COS-7 nuclear extract on double-stranded Agilent 4x180k PBM; binding buffer, salt, pH and temperature not given; high values mean tight binding; double strand, one strand shown; sequences stand for … in …GCCTAGGGAGATTAGAGTATCGGTCGA
AAGCAGCGATGGAAGGGATGGGGTGCAAAC: the binding signal (log2 normalized intensity) was -1.27. Next, ACCTGAGTGCCAGAGCTGTGAAGACTGCAG: -1.37; GGAGGCAGGGAGACAACCTGGGTGTAGGTG: -1.38. Consider CAAGCTTGATCCAGGATCCTTCTTGACCAG, for which the binding signal (log2 normalized intensity) was found to be 1.18. Take ACCCGGCGCGGACATAAAATTAAAGCGGAC: the binding signal (log2 normalized intensity) was -1.16. As for CCATCATGTGTACAGAGCTGAAGTTTGCAA, the binding signal (log2 normalized intensity) was determined as 0.684.

As to CGGGGAACCCAGCAAACCTGTCTCTCTGCA, the binding signal (log2 normalized intensity) was -1.26. Regarding TCTGTCCTTTGTGTTTATGGCAAATTGATA, the binding signal (log2 normalized intensity) amounted to 2.04. Consider GAACTGAGTTACTTGTGCTAAGTGCCATGT, for which the binding signal (log2 normalized intensity) was found to be 0.786. As for TAGCAAAGAAACTCGTGGCATTTTTGCCCC, the binding signal (log2 normalized intensity) came to 2.94. For the sequence TGTAATACACAAGCAATAGGGTTCGGTGCA, the binding signal (log2 normalized intensity) worked out at 0.3. Regarding CATTCAGCAACTGGGTTCAGTTACGGGGTG, the binding signal (log2 normalized intensity) is 1.38. For TACTTTTCAAATGTAAGAATTTAAACCAAA, the binding signal (log2 normalized intensity) is -0.968.

With GTACGGAGGACAGCCACCCGTGCTTGGAAT, the binding signal (log2 normalized intensity) was -1.35. As to GCTCAGCTGGTTGCCCCTTTGACCCTCGGG, the binding signal (log2 normalized intensity) is 7.06. The figure for CTCCCTCCCCACCCGGTGTGCGTGGGTGGG is 2.03. As for TATGGCAACCTTTGTCCTGCTGAGGAGGCA, the binding signal (log2 normalized intensity) worked out at 2.92.

On to TTCAAAAGAGAGAGTAGCTCCAAAAGGTGG, for which the binding signal (log2 normalized intensity) was -1.33. As for ATCCTGTCTCCTTTAACCTTCATTCATATC, the binding signal (log2 normalized intensity) stood at 1.47.

On to TTAGCTTCCTCCCTTGGAATGTGACCTTAG, for which the binding signal (log2 normalized intensity) came to 5.27. Consider TCCCCACCATTAACCCTACAGTCCTGCCAC, for which the binding signal (log2 normalized intensity) turned out to be 2.5. Turning to GGAATGACCTTTGATATTTGTGCCTAGTGG, the binding signal (log2 normalized intensity) was 5.39. In the case of AGGCATCTCTGGGGGTCAGAAGTCCAACAT, the binding signal (log2 normalized intensity) turned out to be 5.91. On to ATCGGAGAACGTTCCAAACCTACACAGACC, for which the binding signal (log2 normalized intensity) is -1.45. As to AGAAATAGCCTGAAAATGTTTGCCGACCTC, the binding signal (log2 normalized intensity) stood at 1.8. On to TTGACCACAGTTATCTCCCCAGCTTACAAT, for which the binding signal (log2 normalized intensity) was determined as 2.16. TGATCTTAAGATGATATAGCTGTTCATTAG: the binding signal (log2 normalized intensity) worked out at 1.35.

For CTTTGTATAAGCCGTGCAAAGTTCATCCCT, the binding signal (log2 normalized intensity) turned out to be 4.01. For ATTTCACAAATGAGGGGACAAAGTTCGTGG, the binding signal (log2 normalized intensity) was 4.29. In the case of CTGGCAAATGTGAATGGACTCTGCCCTTAG, the binding signal (log2 normalized intensity) was found to be 6.96. Turning to AAGGCCCAGCTAGAAGCAGTGGGACAAAGG, the binding signal (log2 normalized intensity) amounted to 1.46. Turning to ATCGCACGAGCAAGTTTATTCCAAGACTCG, the binding signal (log2 normalized intensity) was -1.26. For the sequence TGGAGGCCAAAAGTAGGGAGGAGGGGAGGG, the binding signal (log2 normalized intensity) is -1.29.

Turning to GCTCCGCCGGACCGGCCAAACTGGTTTCTC, the binding signal (log2 normalized intensity) is -1.27.

As to ACCAAACAAAATTAATGTGCCTGCCACATC, the binding signal (log2 normalized intensity) was -1.39. Next, ACCAGATAAGGCAGTGGTTTGCAGTTGGAA: 0.598.

For the sequence GTAACCTTTGGCCAATTGCATTTTTGTTCC, the binding signal (log2 normalized intensity) is 3.19. With CCAGATGAGATAGGAGGTCAGCACAAGATA, the binding signal (log2 normalized intensity) is -1.35. The figure for GAGAGTTTTCCTTGGCTGTGCTGCCCTTTG is 4.01; for TGGGCTCTGACCCGAAGGGTAGGAGAAGCT it is -1.34; for TCGTGGCCCCTGGGTCGTTGGTGCTCCCCC it is 4.53. With ATTTGACAATTTACAGTGTTCAAAGGTAGC, the binding signal (log2 normalized intensity) turned out to be 2.48. On to TTTCATTGAACTGCTGGGGGTAAAGTGGAT, for which the binding signal (log2 normalized intensity) was determined as 1.5. For CTGACCTCCGACCCCACGGACTTAAATTGT, the binding signal (log2 normalized intensity) was 3.37.

Take CTTTGAAAAAACCTGTTCAGCCAGATTCTC: the binding signal (log2 normalized intensity) was -1.25. As for CTGAGGAAAAAAGTTTGAAAATGCCTTGAA, the binding signal (log2 normalized intensity) was -0.805.

For ACCTGTACAGGGACTGTGTCAACAAGGTAT, the binding signal (log2 normalized intensity) was determined as 0.448. The figure for CAACCCATCCAACTCCTTGAGAAGTACAAC is -0.809; for CATAGTAACAACCTAAATCAGAGCACCATT it is -1.42. In the case of AGCATTTTTGTATGCATAAGGCCTTGGACC, the binding signal (log2 normalized intensity) stood at 3.27. As for AATGAAACATTGTGACTTCCTCATGATCGC, the binding signal (log2 normalized intensity) worked out at 1.05. Turning to CTGCACCTTGACCTCCTGGGCCCAAGTGCT, the binding signal (log2 normalized intensity) amounted to 3.42. Regarding ACGGACTTAAATTGTGCTGTGTCAGAGTTG, the binding signal (log2 normalized intensity) was 1.66.

As for CCAAGAGCGGAAAGAAAGGCCTTTCATACG, the binding signal (log2 normalized intensity) is -1.31. Regarding GCGGCGGAACGCGCGGGCAGGTTGCCCTTT, the binding signal (log2 normalized intensity) is 5.31. TTACTTATGTTGTCCGGACACCAACCTTTG: the binding signal (log2 normalized intensity) is 3.03. With TCTATCTCCCTACCCTCACCCCTGCTGGGG, the binding signal (log2 normalized intensity) came out at 1.87. As for TTCCTGTTAGATAGAGGAGTCAAGCAAACA, the binding signal (log2 normalized intensity) is -0.972.

Take AACCCCTAGGTCAGCAGTTGTTCAAAGTCC: the binding signal (log2 normalized intensity) is 5.35.

Regarding ACACAGTTGCCTATGCCCTTTGAAATTCTG, the binding signal (log2 normalized intensity) worked out at 2.26. On to AAAAGCCTTTTGAAGAAACCAACCCTGCCA, for which the binding signal (log2 normalized intensity) was -1.37.

For the sequence TTGGATTTTAAAAGCCCTCAAATACTCTGA, the binding signal (log2 normalized intensity) was -1.38. Next, CGGTGAGGGATTGTTTAGGTACAAAGTCCA: 8.89; ACTGTATCTTATCAGAAACACACCCTTGGG: -1.33; AGTGCATAGCTAAGCACCCAGATAAGTTAT: -1.23. In the case of TCTGCTCTTGAACCAGAGAATCTCTCATTT, the binding signal (log2 normalized intensity) was -1.05.

Turning to TCAAGACAGGTGAGAGAGCTGCATTGCTTC, the binding signal (log2 normalized intensity) was -1.12.

With TTCACCGGAGATTTACATTCCAGAGTAAAC, the binding signal (log2 normalized intensity) is -1.32. In the case of TATCTTCGTATAGAAACAAGACAGAATGAT, the binding signal (log2 normalized intensity) was -0.509. Next, AGGCCATCCACATTCTTTGGCTCAGGGCCT: -1.31; GGCCACTCCGTTTGCTATGGCCTTTCTTCA: 0.898; CCTGGCCGAGGTTGCCCAGCTATTAAATGG: -1.01. Turning to ACTGAATATGTTCGGGAGACATGTGGCCTT, the binding signal (log2 normalized intensity) was found to be 2.13.

For the sequence TTGCCTGATAGCATCGTGGGTATTTGGGGA, the binding signal (log2 normalized intensity) worked out at 1.17. In the case of GATAAGTCCCTAAGAGGAATAGTCAGATTG, the binding signal (log2 normalized intensity) is -1.45. Next, TTACTGGACTTGATCCATTCTACCCCTGTG: 2.82; GCAGGGCTTTTCCATTGACAGTCCAAGGAC: -1.35; CAGCCCAGCATACCATTCCCACCCCATTTC: 3.23. As for TAGCTCACAGGAAAGGAGACTAAAGGTCAA, the binding signal (log2 normalized intensity) is 5.26. With TGGACTTTGTGGGCCAAAAGCAGCCATTAA, the binding signal (log2 normalized intensity) is 1.48. Turning to TTTCAAGCAATGTTTGCCTCTCAGCTCATT, the binding signal (log2 normalized intensity) is -1.39. The figure for AATGATCAAAGAGACACAATCCCTAAGGCC is -1.33; for AAGAGCAAAGGACCAAAAGATATTTGCTGC it is -1.42; for ATCTTTGACCTCTCCAGGGTCCTTGCCTTA it is 2.25. For the sequence TCTTGGCTGCTTTAGACATGAGATAGCATT, the binding signal (log2 normalized intensity) is 0.744. As to TCAGAGGCTAAACCTAGCCCCCTTTCCCTT, the binding signal (log2 normalized intensity) worked out at 3.5. The figure for ACTTCTGTCTCCAGAAATCAACCTTTGATC is 8.8; for TCTACTTGTTAGTAATCGATGTCCATGAAG it is 1.54; for AGCAAAGGTCATCCTGGGCTACCGATATGA it is 1.58. In the case of TGTGTTTCCCTCCCTGGTATGTACTTTCTT, the binding signal (log2 normalized intensity) turned out to be 2.52. As for TTCACCTTTCGCCCTTTGTCCTATGACTCT, the binding signal (log2 normalized intensity) turned out to be 5.44.

With GTACAAAGTACAGAGATGGCACAGAGGAGG, the binding signal (log2 normalized intensity) was -1.38. Take GCATTTAGAAATAGTTGACTTTTCTAACAA: the binding signal (log2 normalized intensity) was -1.27.
